The labels stand for the following.
B1: chr8:103332422:103332528:+|3pUTR|ENSG00000164930|msi1|total|mutant (ssRNA)
RNA: GGGAGUUCUACAGUCCGACGAUCUUUUUUAACAUUCCGAAUAUUACAUUUUGUAUUAUACAGUACCUUUCUCAGACAUUUUGCCGAAUUCAUUUCGGCAGCUCACCCGGAUUUUGCUGAACAUUAAAAAGUGUGACCGCGAUACAACAGAGGAUUGAGCAUCA
B2: chr11:20048915:20049016:+|CDS|ENSG00000166833|unk|total|mutant (ssRNA)
RNA: GGGAGUUCUACAGUCCGACGAUCGAGCAGUGGGAGCAGCAGUCCUCUCUACAGCAAGAAUGUGGACCUCAACCAGUCUCCGCCCGCCUCCAGCCCCAGCUCAGCCCACUCGGCCCCUUCCAACAGCCUCACCUGGGGCACCAACAACAGAGGAUUGAGCAUCA
B3: chr11:75562225:75562326:+|5pUTR|ENSG00000149257|msi1|FALSE|unique (ssRNA)
RNA: GGGAGUUCUACAGUCCGACGAUCGCAGGAGGGGGUGGGGACUGCCAUAUAUAGAUCCCGGGAGCAGGGGAGCGGGCUAAGAGUAGAAUCGUGUCGCGGCUCGAGAGCGAGAGUCACGUCCCGGCGCUAGCCCAGCCCGACCCACAACAGAGGAUUGAGCAUCA
B4: chr12:66123492:66123593:-|3pUTR|ENSG00000139233|msi1|total|mutant (ssRNA)
RNA: GGGAGUUCUACAGUCCGACGAUCAUGCUACCCAAUAUCCAGUUAUAAUCAGGCCUCAACGUUCUGUCAGGUAUUAAUAUGGUCCGAAUUGUUCUUACAACUGGUAAUUACCGUCAACCGAGAUAAAACAGAUGAUGUACUGACCAACAGAGGAUUGAGCAUCA
B5: chr10:30336814:30336915:-|CDS|ENSG00000107951|unk|total|mutant (ssRNA)
RNA: GGGAGUUCUACAGUCCGACGAUCGUAUUUUCCAGACUGCACCGUCAGACCCUUUGGCUCCUCAGUCAACACUUUUGGGAAGUCCGGAUGUGAUUUGGACAUGUUUUUGGAUCCCGAUGAAACCAGAAACCUCAGCGCUCACAACAACAGAGGAUUGAGCAUCA
B6: ENSG00000135454:stop:overlap|stop_codon|ENSG00000135454|stop_codon|NA|stop_codon (ssRNA)
RNA: GGGAGUUCUACAGUCCGACGAUCAGCGCGUUAGUGGCCCCUACGUGGAACACUAUCUCAUGCCCUUCGGCAAGGUGUGCAGCUAGCAGGCUGAACGGCAGGCCAGAGGACUCCCGCAGGGGGUGUGCCCUCAAUCUGCAGCCUCAACAGAGGAUUGAGCAUCA
B7: chr7:113918214:113918996:-|CDS|ENSG00000154415|control|control|control (ssRNA)
RNA: GGGAGUUCUACAGUCCGACGAUCUGAGAAGUUAGUAUAUGUAAGAAUGUCUUUAGAUGACUGGCAGACACAUUAUGACAUUUUAGCAGAAUAUGUUCCUAAUUCAUGUGAUGGUGAAACUGACCAGUUCUCCUUUAAGAUUGUCAACAGAGGAUUGAGCAUCA
B8: chr5:119149357:119149458:+|CDS|ENSG00000172869|msi1|total|mutant (ssRNA)
RNA: GGGAGUUCUACAGUCCGACGAUCCUGGGAGAGUACCAAAGUUGUGCCCCUUUCUAAAUUUGUACUAUUACGAAGUGUGGACCCCGUUUCUUCUGCCGAUGGCUCCCCACCUUUUCCUGUUUCUUUAUCGUGGGUCCGGGAUGGCAACAGAGGAUUGAGCAUCA
B9: chr16:33844783:33845086:-|CDS|ENSG00000259680|control|control|control (ssRNA)
RNA: GGGAGUUCUACAGUCCGACGAUCAGCUGGGUCCGCCAGGCUCCAGGGAAGGGACUGGAGUGGAUUUCAUACAUUAGUGGUGAUAGUGGUUACACAAACUACGCAGACUCUGUGAAGGGCCGAUUCACCAUCUCCAGGGACAACCAACAGAGGAUUGAGCAUCA
B10: chr9:21239001:21239365:-|three_prime_utr|ENSG00000228083|control|control|control (ssRNA)
RNA: GGGAGUUCUACAGUCCGACGAUCCAAAAUUUUCAAAUGUUUUCAGGAGUGUAAAGAAGCAUCAUGUAUACCUGUGCAGGCACUAGUCCUUUACAGAUGACCAUGCUGAUGUCUCCUUUCAUCUAUUUAUUUAAAUAUUUAUUUCAACAGAGGAUUGAGCAUCA
B11: chr13:45957189:45957298:-|CDS|ENSG00000123200|unk|total|mutant (ssRNA)
RNA: GGGAGUUCUACAGUCCGACGAUCUGUUUUUGUUUUCUUCAAACCGGGCACCAUAAAACAAGCUUACACGAGUGCUCCAAUGGCCGACAAUGAAUUACUUCGAUUGAGUCUUCGGUUAUUUAAGCGGAAGACUACUUGCCAUGCCAACAGAGGAUUGAGCAUCA
B12: chr1:9614578:9614679:+|3pUTR|ENSG00000188807|msi1|FALSE|unique (ssRNA)
RNA: GGGAGUUCUACAGUCCGACGAUCUCCAGCUGCCAGCAAUGGUUCCAACUCGGAGGCAGCGCCUCUUGGUCCCCAUUUCUGUAUAGCAGGCGUGUGUGUGUGUGUCGAGGUUUUUUAUUUUUUGCUUAAUCAAACUCCAUUCCCCAACAGAGGAUUGAGCAUCA
B13: chr5:72209348:72209524:+|3pUTR|ENSG00000131711|msi1_unk|FALSE|overlapping (ssRNA)
RNA: GGGAGUUCUACAGUCCGACGAUCUUAUGUCUUAUAAUCCUGCAUCACUUCUAUCCUAUCCAGUCAUAUCUAAUGUAGAAAAUUAGUUUCCAGUGAAAGUAAUAUGUAGUGCUUUUAUGAUAUUUGUGUGCAAUAUCCCCUCUUCAACAGAGGAUUGAGCAUCA
B14: chr22:38736040:38736148:-|3pUTR|ENSG00000100242|msi1|total|mutant (ssRNA)
RNA: GGGAGUUCUACAGUCCGACGAUCCCCCAUGCAGAUGAAAAGGACGGGCAGGGUCUCCUGAGCAGCAGGUGGCUCGAGGCGGUCCGCAGGCUCCAGCAGCUCCCUUCUUCCUUCCCUCUGUGCCCGUGGCGUCUGCUUCCCAUCCAACAGAGGAUUGAGCAUCA
B15: chr1:23091194:23091296:-|CDS|ENSG00000169641|unk|FALSE|unique (ssRNA)
RNA: GGGAGUUCUACAGUCCGACGAUCCUCCAGAAGGACCCAAAGUAGCCUCACUGUGUCAGAGGUGCUUACCCGUCGGAAUCGGGUAGGAGACACCAUCACUGUCGCAGCCUGGAACCACUCAGCAAGCAUGGUGAGUUCCAGCCUCAACAGAGGAUUGAGCAUCA
B16: chr9:111714444:111714623:-|CDS|ENSG00000165181|control|control|control (ssRNA)
RNA: GGGAGUUCUACAGUCCGACGAUCAGCAUUUUAGGCCCCUAUUUGGGUGACAUUUGGAGACAGCUGGAGAUUGUACAGUUUAUUAGGGGGAAAAAGCCUGAAACCAACUACAAGAUACAAGAAUUGCAAUGUCAGAUACUAAGUCAACAGAGGAUUGAGCAUCA
B17: chr17:41822664:41822765:+|3pUTR|ENSG00000141756|msi1|total|mutant (ssRNA)
RNA: GGGAGUUCUACAGUCCGACGAUCUUCCUUAAAAUGUUUGGAUUUGCAAAGCCAAUUUGGGGCCUGUGGAGCCUGGGGUUGGACCGGGCCAUGGCUGGUCCCCCACCAUACCUCCCCUCCACAUCACUGACACAGCUGAGCUUGCAACAGAGGAUUGAGCAUCA
B18: chr15:43456694:43456846:-|CDS|ENSG00000067369|unk|FALSE|unique (ssRNA)
RNA: GGGAGUUCUACAGUCCGACGAUCAGACACCAGGGAUGACAUUAGUAUUUUAGCCACUGGUUGCAAGGGCAGAGAAGAAACGGUAGCAGAAGAUGUUUGUAUUGAUCUCACUUGUGAUUCGGGGAGUCAGGCAGUUCCGUCACCCAACAGAGGAUUGAGCAUCA
B19: chr19:41261474:41261596:+|3pUTR|ENSG00000167601|msi1|FALSE|unique (ssRNA)
RNA: GGGAGUUCUACAGUCCGACGAUCUCUAAAGGUCCACAGGUCUAGACUAUUAGGUGCAAUUUCAAGGUUCUAACCCUAUACUGUAGUAUUCUUUGGGGUGCCCCUCUCCUUCUUAGCUAUCAUUGCUUCCUCCUCCCCAACUGUCAACAGAGGAUUGAGCAUCA
B20: chr10:73423578:73424772:-|three_prime_utr|ENSG00000166343|control|control|control (ssRNA)
RNA: GGGAGUUCUACAGUCCGACGAUCCCAGUAUACUGCAGUGCAUACUAUAUCAUGUUUCUUGGAAGCUCCUGUCAGCUGGAUAAUAGGCAAUUAGAAGAGAAAGUGGACGGCGGGAUUUAAAUAGAUCAUAACUGGACAUCUGGACAACAGAGGAUUGAGCAUCA
B21: chr9:15468732:15468834:-|CDS|ENSG00000164985|unk|total|mutant (ssRNA)
RNA: GGGAGUUCUACAGUCCGACGAUCAAUCCGGAAAACAAUUAUGAUGAAUGUAUAUUGUUUUCUCAGAUACGGCGAUUCAAAGUCCGUCAGGUAAUCAUGGAAAAGUCUACAAUGUUGUAUAACAAGUUUAAGAACAUGUUCUUGCAACAGAGGAUUGAGCAUCA
B22: chr6:1612588:1612689:+|3pUTR|ENSG00000054598|msi1|total|mutant (ssRNA)
RNA: GGGAGUUCUACAGUCCGACGAUCUUUAUUCAUGGACUUGUUUUAAAAUGUAAAUUGCAACACCGUAAUUUAUUUUUAAUUUGCCGUUGGAUGUCGUGGACCAAACGCCAGAAAGUGUUCCCAAAACCUGACGUUAAAUUGCCUCAACAGAGGAUUGAGCAUCA

The list shows a part of the results.

The target of this assay is MSI1 full-length (mouse, UniProt Q61474 1-362). Put plainly: nsRBNS (natural sequence RNA bind-n-seq); RBNS binding buffer (assumed for nsRBNS): 25 mM Tris pH 7.5, 150 mM KCl, 3 mM MgCl2, 0.01% Triton X-100, 500 ug/ml BSA, 20 U/ml SUPERase-In, 4 C; UNK is unkempt and MSI1 is Musashi-1; names of the RNAs are library labels; protein concentration not given here; high values mean tight binding.
Chain of UniProt Q61474 (Q61474 whole entry): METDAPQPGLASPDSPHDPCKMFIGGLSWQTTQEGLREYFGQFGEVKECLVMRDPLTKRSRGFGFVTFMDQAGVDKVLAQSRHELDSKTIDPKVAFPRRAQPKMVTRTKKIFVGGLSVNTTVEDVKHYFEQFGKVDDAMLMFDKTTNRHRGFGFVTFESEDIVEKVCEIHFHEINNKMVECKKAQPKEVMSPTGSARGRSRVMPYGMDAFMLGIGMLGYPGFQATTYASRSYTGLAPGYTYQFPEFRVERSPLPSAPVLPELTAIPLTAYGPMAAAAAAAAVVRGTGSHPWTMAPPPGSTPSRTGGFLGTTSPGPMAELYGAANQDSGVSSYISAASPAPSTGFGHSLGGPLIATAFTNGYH
B1: the binding signal turned out to be 0.818 enrichment R.
With B2, the binding signal stood at 0.595 enrichment R.
The same measure for B3: 0.866 enrichment R.
In the case of B4, the binding signal amounted to 0.303 enrichment R.
The value for B5 was 0.393 enrichment R; that for B6 was 4.38 enrichment R; that for B7 was 2.24 enrichment R.
B8: the binding signal was 0.624 enrichment R.
The value for B9 was 0.455 enrichment R; that for B10 was 0.493 enrichment R.
The value for B11 was 0.222 enrichment R; that for B12 was 0.651 enrichment R; that for B13 was 22.2 enrichment R.
With B14, the binding signal was 0.688 enrichment R.
The same measure for B15: 0.229 enrichment R; for B16: 1.47 enrichment R.
As to B17, the binding signal was 0.412 enrichment R.
The same measure for B18: 3.82 enrichment R; for B19: 3.39 enrichment R.
In turn, B20 gave a binding signal of 3.04 enrichment R.
Regarding B21, the binding signal is 0.21 enrichment R.
With B22, the binding signal turned out to be 0.235 enrichment R.
